# Data published in the supplement of paper PMC7826260.
# The list shows a part of the results. Each Rep nickase domain was tested in vitro on the same pool of single strands (1 h at 37 °C, 3 µM enzyme); the outer parts of the 90-letter strands are left off. A value is the log2 ratio of uncut reads to the pool without enzyme; more negative means more cut, near 0 not cut, and no call is made. The scaling is to total reads; values above 0 arise when much of the pool is cut.
# System: T1, Rep nickase domain of tomato golden mosaic virus
# T1 sequence (protein, residues 1-124, tag omitted): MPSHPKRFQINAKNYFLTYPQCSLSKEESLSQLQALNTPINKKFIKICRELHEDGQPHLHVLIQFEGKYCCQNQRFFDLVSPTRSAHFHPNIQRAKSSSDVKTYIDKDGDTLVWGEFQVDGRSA
# Test: uncleaved DNA left, log2 of reads against the no-enzyme library (log2 ratio); higher = less cleavage (more negative = more Rep cleavage of the k-mer); sequences stand for … in CTCGTCCG…ACCGGAGA
# Experimental: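 A pool of 90-nt single-stranded DNAs with seven random bases just before the constant AC of the nick site (name = the seven bases) was cut by 3 µM recombinant His6-SUMO-tagged Rep nickase domain (300 nM DNA, 50 mM HEPES pH 8.0, 50 mM NaCl, 1 mM MnCl2, 1 h, 37 °C, three replicates). Uncut DNA was amplified and sequenced.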
row,Sequence,uncleaved DNA left (log2)
1,GCGGCAG,0.113
2,ATCGTTT,-0.0848
3,ATTTCGT,-0.142
4,AATGAGC,-0.0661
5,ATTAGAT,0.0976
6,ACCCACG,-0.0473
7,ACAACGC,-0.0334
8,CTGTAGA,-0.013
9,CCGGCCT,0.0122
10,GACGCCT,-0.0254
11,TGCCGAT,-0.178
12,AGGGGGC,0.0553
13,GTGTACT,0.151
14,CGTGGCT,0.0353
15,TACTTTT,-1.87
16,TAGTAAT,-0.922
17,TCCAGAT,-0.0178
18,AGATACG,-0.0682
19,AATCGGA,0.0794
20,AACGCTT,0.0221

row,Sequence,uncleaved DNA left (log2)
1,TAGGCGA,-0.111
2,AACTCGC,-0.0828
3,ACTCCAT,0.00945
4,AAAAGCC,0.0996
5,GAATTTT,-3.09
6,TATCGAA,0.0557
7,TGTTAAT,0.0362
8,CGGGTAA,-0.0396
9,CGTTCAT,-0.0594
10,CAAATCG,0.0175
11,TAGCCCG,-0.0739
12,CCGCGTT,-0.115
13,GTGACTC,0.0578
14,AGCTCAG,-0.0178
15,TCGTCCA,0.0353
16,CTCGACC,-0.0523
17,GCCGGTT,0.223
18,AGAGGAT,0.126
19,AGTAAGT,-0.0206
20,CTTACGG,0.243
